Among all 39,000 compounds or so, about 220 (0.56%) showed activity. Some of the results follow.
Each compound was assayed on Escherichia coli K-12 BW25113 (assay: relative growth (OD600 normalised to plate interquartile mean) (fraction); higher = less growth inhibition, active = 0.2 or less). Details: 50 µM; LB; incubation time: overnight (16-24 h).
With `C[C@@H]1CCCCO[C@@H](CN(C)Cc2ccccc2)[C@H](C)CN([C@H](C)CO)C(=O)c2cc(NS(=O)(=O)c3ccc(F)cc3)ccc2O1` the relative growth was inactive: 1.
`C[C@@H]1CCCCO[C@H](CN(C)C(=O)Nc2ccc(C(F)(F)F)cc2)[C@H](C)CN([C@@H](C)CO)C(=O)c2cc(NS(C)(=O)=O)ccc2O1` was tested, and the relative growth was inactive: 0.966.
In the case of `N[C@@H]1[C@H]2CN(c3nc4c(cc3F)c(=O)c(C(=O)O)cn4-c3ccc(F)cc3F)C[C@@H]12`, the relative growth is reported as active: 0.0389.
In the case of `CCn1c(C)cc(C)c(C(=O)N2C[C@H]3C(=O)NC[C@@]3(C(=O)O)C2)c1=O`, the relative growth is reported as inactive: 0.961.
`O=c1nc(N2CCc3ccccc3C2)cn[nH]1` was tested, and the relative growth was inactive: 1.03.
With `C[C@@H]1CN([C@H](C)CO)C(=O)CCCn2cc(nn2)CO[C@@H]1CN(C)C(=O)Nc1ccc(N2CCN(C)CC2)cc1` the relative growth was inactive: 0.966.
For `Cc1ccc(S(=O)(=O)Nc2cccc3c2O[C@@H](CN(C)Cc2ccc(Oc4ccccc4)cc2)[C@H](C)CN([C@H](C)CO)C3=O)cc1`, the relative growth was inactive: 1.05.
With `COCCNC(=O)C[C@@H]1C[C@H]2c3cc(NC(=O)Nc4ccc(C(F)(F)F)cc4)ccc3O[C@H]2[C@H](CO)O1` the relative growth was inactive: 0.95.
In the case of `COc1ccc(S(=O)(=O)N(C)C[C@H]2Oc3c(NS(=O)(=O)c4cccs4)cccc3C(=O)N([C@@H](C)CO)C[C@H]2C)cc1`, the relative growth is reported as inactive: 1.03.
In the case of `Cc1noc(C)c1NC(=O)N(C)C[C@@H]1OCCCC[C@@H](C)Oc2ccc(NS(=O)(=O)c3ccccc3)cc2C(=O)N([C@H](C)CO)C[C@H]1C`, the relative growth is reported as inactive: 1.
`C[C@H]1CCCCO[C@H](CN(C)C(=O)NC2CCCCC2)[C@@H](C)CN([C@@H](C)CO)C(=O)c2cc(NC(=O)CCC(F)(F)F)ccc2O1` was tested, and the relative growth was inactive: 0.958.
With `COc1ccc(NC(=O)Nc2ccc3c(c2)CC(=O)N([C@@H](C)CO)C[C@H](C)[C@H](CN(C)Cc2ccc(Cl)c(Cl)c2)O3)cc1` the relative growth was inactive: 1.03.
For `C[C@H]1CN([C@@H](C)CO)S(=O)(=O)c2ccc(C#CCN(C)C)cc2O[C@@H]1CN(C)Cc1cccnc1`, the relative growth was inactive: 1.
In the case of `C[C@@H]1CN([C@H](C)CO)C(=O)c2cc(C#CC3(O)CCCC3)cnc2O[C@H]1CN(C)C(=O)C1CCOCC1`, the relative growth is reported as inactive: 0.984.
With `COCC#Cc1ccc2c(c1)O[C@H](CN(C)S(C)(=O)=O)[C@H](C)CN([C@H](C)CO)S2(=O)=O` the relative growth was inactive: 1.04.
`C[C@@H]1CCCCO[C@@H](CN(C)Cc2ccccc2)[C@H](C)CN([C@@H](C)CO)C(=O)c2cc(NC(=O)Nc3ccc4c(c3)OCO4)ccc2O1` was tested, and the relative growth was inactive: 1.01.
`O=C(C[C@@H]1CC[C@@H]2[C@H](COC[C@H](O)CN2S(=O)(=O)c2ccccc2F)O1)NCc1ccccc1Cl` was tested, and the relative growth was inactive: 0.912.
For `CC(C)CC#Cc1cnc2c(c1)C(=O)N([C@H](C)CO)C[C@H](C)[C@H](CN(C)S(=O)(=O)c1ccccc1)O2`, the relative growth was inactive: 1.02.
`COc1ccc(NC(=O)N(C)C[C@H]2Oc3ccc(NS(C)(=O)=O)cc3CC(=O)N([C@@H](C)CO)C[C@@H]2C)cc1` was tested, and the relative growth was inactive: 1.02.
With `Cl.Nc1ccn(C2OC(CO)C(O)C2(F)F)c(=O)n1` (stereo not drawn) the relative growth was inactive: 1.09.
`C[C@@H]1CN([C@@H](C)CO)C(=O)c2cc(NS(=O)(=O)c3cccs3)ccc2O[C@@H]1CN(C)Cc1ccc(Oc2ccccc2)cc1` was tested, and the relative growth was inactive: 0.981.
For `C[C@@H]1CN([C@H](C)CO)C(=O)c2cc(NC(=O)Cc3ccccc3)ccc2O[C@H]1CN(C)S(=O)(=O)c1ccccc1`, the relative growth was inactive: 0.978.
For `Cc1ccc(S(=O)(=O)N(C)C[C@@H]2OCCCC[C@H](C)Oc3ccc(NC(=O)Nc4ccc5c(c4)OCO5)cc3C(=O)N([C@H](C)CO)C[C@H]2C)cc1`, the relative growth was inactive: 1.02.
In the case of `C[C@@H]1CCCCO[C@H](CN(C)C(=O)Nc2cccc3ccccc23)[C@H](C)CN([C@@H](C)CO)C(=O)c2cc(NC(=O)Nc3ccc(C(F)(F)F)cc3)ccc2O1`, the relative growth is reported as inactive: 0.868.
With `C[C@@H]1CN([C@H](C)CO)C(=O)c2cc(NC(=O)C3CCCCC3)ccc2O[C@@H](C)CCCCO[C@H]1CN(C)C(=O)Cc1ccccc1` the relative growth was inactive: 1.01.
`CSCC[C@H](NC(=O)[C@H](Cc1c[nH]c2ccccc12)NC(=O)CNC(=O)[C@@H](NC(=O)[C@H](Cc1ccc(OS(=O)(=O)O)cc1)NC(=O)[C@H](CC(=O)O)NC(=O)[C@H](CCC(N)=O)NC(=O)[C@@H]1CCC(=O)N1)[C@@H](C)O)C(=O)N[C@@H](CC(=O)O)C(=O)N[C@@H](Cc1ccccc1)C(N)=O` was tested, and the relative growth was inactive: 1.01.
In the case of `C[C@@H]1CN([C@@H](C)CO)C(=O)c2cc(NS(=O)(=O)c3cccs3)ccc2O[C@@H](C)CCCCO[C@@H]1CN(C)C(=O)Nc1ccc2c(c1)OCO2`, the relative growth is reported as inactive: 1.04.
`C[C@H](CO)N1C[C@H](C)[C@H](CN(C)C(=O)Nc2cccc3ccccc23)Oc2ncc(-c3ccc(F)cc3)cc2C1=O` was tested, and the relative growth was inactive: 1.02.
With `C[C@H]1CN([C@@H](C)CO)S(=O)(=O)c2ccc(C#CC(C)(C)O)cc2O[C@@H]1CN(C)Cc1ccccc1` the relative growth was inactive: 1.01.
For `O=C(C[C@@H]1CC[C@H]2[C@@H](COC[C@@H](O)CN2S(=O)(=O)c2ccc(F)cc2)O1)N1CCc2ccccc2C1`, the relative growth was inactive: 1.02.
`COC(=O)CCn1ccc(=O)[nH]c1=O` was tested, and the relative growth was inactive: 0.995.
In the case of `C[C@@H]1CCCCO[C@@H](CN(C)Cc2ccc3c(c2)OCO3)[C@H](C)CN([C@@H](C)CO)C(=O)c2cc(NC(=O)Cc3ccccc3)ccc2O1`, the relative growth is reported as inactive: 1.01.
For `c1ccc2[nH]c(-c3cscn3)nc2c1`, the relative growth was inactive: 1.
For `CN(C)c1nc(Oc2ccc(=O)n(C)n2)nc(N(C)C)n1`, the relative growth was inactive: 1.02.
With `C[C@H]1CN([C@@H](C)CO)C(=O)c2cccc(NC(=O)C3CC3)c2O[C@@H]1CN(C)S(=O)(=O)c1ccccc1` the relative growth was inactive: 0.999.
With `Cc1noc(C)c1NC(=O)Nc1ccc2c(c1)C(=O)N([C@@H](C)CO)C[C@@H](C)[C@H](CN(C)Cc1ccc3c(c1)OCO3)OCCCC[C@@H](C)O2` the relative growth was inactive: 0.989.
With `O=C(C[C@@H]1CC[C@@H]2[C@H](COC[C@H](O)CN2S(=O)(=O)c2ccc(F)cc2)O1)N[C@H]1CCN(Cc2ccccc2)C1` the relative growth was inactive: 0.992.
For `C[C@H]1CN([C@@H](C)CO)C(=O)c2cccc(NC(=O)Nc3cccc4ccccc34)c2O[C@@H]1CN(C)C(=O)Nc1ccccc1`, the relative growth was inactive: 1.01.
For `C[C@@H]1CN([C@H](C)CO)C(=O)Cc2cc(NS(C)(=O)=O)ccc2O[C@H]1CN(C)S(C)(=O)=O`, the relative growth was inactive: 0.964.
With `Cc1cc(C(=O)Nc2cccc3c2O[C@@H](CN(C)S(=O)(=O)c2cccs2)[C@H](C)CN([C@H](C)CO)C3=O)n(C)n1` the relative growth was inactive: 1.02.
In the case of `C[C@H]1CN([C@@H](C)CO)C(=O)c2cc(NC(=O)Cn3cnnn3)ccc2O[C@H]1CN(C)S(=O)(=O)c1cn(C)cn1`, the relative growth is reported as inactive: 1.
For `C[C@@H]1CN([C@@H](C)CO)C(=O)c2cccc(NC(=O)Nc3ccc(C(F)(F)F)cc3)c2O[C@H]1CN(C)C(=O)Nc1ccc(C(F)(F)F)cc1`, the relative growth was inactive: 0.951.
With `C[C@@H](O)[C@@H](O)[C@@H](O)C/C=N/NC(=O)CCCCCCC(=O)NO` the relative growth was inactive: 0.976.
For `O=C(C=Cc1ccc(O)c(O)c1)C=C(O)C=Cc1ccc(O)c(O)c1`, the relative growth was inactive: 0.984.
`Cc1ccc(/C=N/c2ccccc2Sc2c(C)n[nH]c2C)cc1` was tested, and the relative growth was inactive: 0.987.
With `CNC[C@@H]1Oc2ccc(NC(=O)Cn3cnnn3)cc2CC(=O)N([C@@H](C)CO)C[C@@H]1C` the relative growth was inactive: 1.02.
For `C[C@H]1CN([C@@H](C)CO)C(=O)Cc2cc(N(C)C)ccc2O[C@H]1CN(C)S(=O)(=O)c1ccc(Cl)cc1`, the relative growth was inactive: 0.999.
For `C[C@@H]1CCCCO[C@@H](CN(C)C(=O)NC2CCCCC2)[C@@H](C)CN([C@H](C)CO)C(=O)c2cc(NC(=O)c3ccncc3)ccc2O1`, the relative growth was inactive: 1.
In the case of `COc1cccc(-c2cn(CC[C@@H]3CC[C@H](NS(=O)(=O)c4ccccc4Cl)[C@H](CO)O3)nn2)c1`, the relative growth is reported as inactive: 1.01.
In the case of `Cc1ccc(S(=O)(=O)Nc2cccc3c2O[C@H](CN(C)Cc2ccc(Cl)c(Cl)c2)[C@@H](C)CN([C@@H](C)CO)C3=O)cc1`, the relative growth is reported as inactive: 1.03.
For `COc1ccc(S(=O)(=O)N2C[C@H](O)COC[C@H]3O[C@H](CC(=O)NCCCN(C)C)CC[C@@H]32)cc1`, the relative growth was inactive: 0.966.
`C[C@@H]1CCCCO[C@H](CN(C)C(=O)Nc2cccc3ccccc23)[C@H](C)CN([C@@H](C)CO)C(=O)c2cc(NC(=O)c3ccncc3)ccc2O1` was tested, and the relative growth was inactive: 0.969.
With `O=C(C[C@@H]1CC[C@H]2[C@@H](COC[C@@H](O)CN2S(=O)(=O)c2ccc(Cl)cc2)O1)N1CCc2ccccc2C1` the relative growth was inactive: 0.995.
`CC(=O)n1cc([C@H]2C=C(C(=O)N3CCCCCCC3)O[C@@H](OCc3ccc(COC(=O)NCCCCCC(=O)NO)cc3)C2)c2ccccc21` was tested, and the relative growth was inactive: 0.933.
`C[C@H](CO)N1C[C@H](C)[C@@H](CN(C)Cc2cncnc2)Oc2cc(-c3ccccc3F)ccc2S1(=O)=O` was tested, and the relative growth was inactive: 0.994.
With `C[C@@H]1CN([C@@H](C)CO)C(=O)c2cccc(NC(=O)c3ccncc3)c2O[C@@H]1CN(C)S(=O)(=O)c1cccs1` the relative growth was inactive: 1.01.
`C[C@H](CO)N1C[C@H](C)[C@@H](CN(C)Cc2ccc(-c3ccccc3)cc2)Oc2ccc(NC(=O)C3CC3)cc2C1=O` was tested, and the relative growth was inactive: 1.02.
For `C[C@H]1CN([C@@H](C)CO)C(=O)c2cccc(NC(=O)C3CCCCC3)c2O[C@@H]1CN(C)Cc1ccc(-c2ccccc2)cc1`, the relative growth was inactive: 0.983.
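Further: static incubation at 37 °C against the wild-type strain, values averaged over two biological replicates.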
